Laboratory results taken from the supplement of paper PMC10369915.
Some of the results follow. Rule as the data show it: active = 3.2 or more and inactive = the rest. The signal is at background level for most entries.

target: SHP2 C-SH2 domain E139D; test: enrichment score (SH2-bound / input frequency) (ratio); bacterial display of known human phosphotyrosine sites (pTyr-Var adds point mutants) read by sequencing; higher = stronger binding; tyrosines were phosphorylated by kinases first; conditions: peptide library: pTyr-Var
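Also: displayed peptides selected on beads carrying the immobilized SH2 domain, with library peptides lacking any tyrosine serving as negative controls.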

Enrichment score, active:
ISSLPYMKMIF [SLC4A11_Y853_M848I] 3.31

Enrichment score, inactive:
PLQKTYNYNML [SLC4A1_Y553_V557M] 0.895, PLQKTYNHNVL [SLC4A1_Y553_Y555H] 0.882, ELQDDYEDTME [SLC4A1_Y8_M11T] 0.595, YPPTHYIRRMP [SLC4A11_Y820_V824M] 0.184, FPPTHYIRRVP [SLC4A11_Y820_YF] 0.275, MSSLPYMKVIF [SLC4A11_Y853_M856V] 2.2, FSCLPYGRLAY [SLC52A2_Y305] 0.788, FSCLPYRRLAF [SLC52A2_Y305_G306R_YF] 0.266, PKEEPYKMQEK [SLC5A3_Y565_Q566K] 0.757, VVIVLYFSLWK [SLC6A2_Y249] 0.638, LHQSTYQRYDV [SLC7A14_Y693] 0.653, LHQSTYQCYDV [SLC7A14_Y693_R695C] 0.908, LHQSTYQCFDV [SLC7A14_Y693_R695C_YF] 0.996, VDSTEYEVASQ [SLC7A7_Y7] 0.56, QKINKYLTVPA [SLC9A1_Y683_N682K] 1.32, FIIFIYAMKKK [SLCO1B1_Y645_L643F_YF] 0.811, FIILIYAMKKK [SLCO1B1_Y645_YF] 1

target: SHP2 C-SH2 domain wild-type; test: as above; conditions: peptide library: pTyr-Var

Enrichment score, active:
ISSLPYMKMIF [SLC4A11_Y853_M848I] 4.01

Enrichment score, inactive:
PLQKTYNYNML [SLC4A1_Y553_V557M] 0.605, PLQKTYNHNVL [SLC4A1_Y553_Y555H] 0.833, ELQDDYEDTME [SLC4A1_Y8_M11T] 0.594, YPPTHYIRRMP [SLC4A11_Y820_V824M] 0.256, FPPTHYIRRVP [SLC4A11_Y820_YF] 0.278, MSSLPYMKVIF [SLC4A11_Y853_M856V] 2.63, FSCLPYGRLAY [SLC52A2_Y305] 0.841, FSCLPYRRLAF [SLC52A2_Y305_G306R_YF] 0.203, PKEEPYKMQEK [SLC5A3_Y565_Q566K] 0.462, VVIVLYFSLWK [SLC6A2_Y249] 0.643, LHQSTYQRYDV [SLC7A14_Y693] 0.803, LHQSTYQCYDV [SLC7A14_Y693_R695C] 1.35, LHQSTYQCFDV [SLC7A14_Y693_R695C_YF] 1, VDSTEYEVASQ [SLC7A7_Y7] 0.549, QKINKYLTVPA [SLC9A1_Y683_N682K] 0.952, FIIFIYAMKKK [SLCO1B1_Y645_L643F_YF] 0.357, FIILIYAMKKK [SLCO1B1_Y645_YF] 0.543

target: SHP2 N-SH2 domain L43F; test: as above; conditions: peptide library: pTyr-Var

Enrichment score, inactive:
PLQKTYNYNML [SLC4A1_Y553_V557M] 0.846, PLQKTYNHNVL [SLC4A1_Y553_Y555H] 1.07, ELQDDYEDTME [SLC4A1_Y8_M11T] 0.528, YPPTHYIRRMP [SLC4A11_Y820_V824M] 0.34, FPPTHYIRRVP [SLC4A11_Y820_YF] 0.267, FSCLPYGRLAY [SLC52A2_Y305] 0.589, FSCLPYRRLAF [SLC52A2_Y305_G306R_YF] 0.343, PKEEPYKMQEK [SLC5A3_Y565_Q566K] 0.516, VVIVLYFSLWK [SLC6A2_Y249] 0.591, LHQSTYQRYDV [SLC7A14_Y693] 0.645, LHQSTYQCYDV [SLC7A14_Y693_R695C] 0.728, LHQSTYQCFDV [SLC7A14_Y693_R695C_YF] 0.804, VDSTEYEVASQ [SLC7A7_Y7] 0.533, QKINKYLTVPA [SLC9A1_Y683_N682K] 1.62, FIIFIYAMKKK [SLCO1B1_Y645_L643F_YF] 0.471, FIILIYAMKKK [SLCO1B1_Y645_YF] 0.374

Enrichment score, active:
ISSLPYMKMIF [SLC4A11_Y853_M848I] 7.65, MSSLPYMKVIF [SLC4A11_Y853_M856V] 6.85

target: SHP2 N-SH2 domain T42A; test: as above; conditions: peptide library: pTyr-Var

Enrichment score, active:
ISSLPYMKMIF [SLC4A11_Y853_M848I] 12.8, MSSLPYMKVIF [SLC4A11_Y853_M856V] 11.6

Enrichment score, inactive:
PLQKTYNYNML [SLC4A1_Y553_V557M] 1.56, PLQKTYNHNVL [SLC4A1_Y553_Y555H] 0.945, ELQDDYEDTME [SLC4A1_Y8_M11T] 0.543, YPPTHYIRRMP [SLC4A11_Y820_V824M] 0.266, FPPTHYIRRVP [SLC4A11_Y820_YF] 0.378, FSCLPYGRLAY [SLC52A2_Y305] 0.563, FSCLPYRRLAF [SLC52A2_Y305_G306R_YF] 0.33, PKEEPYKMQEK [SLC5A3_Y565_Q566K] 0.702, VVIVLYFSLWK [SLC6A2_Y249] 0.512, LHQSTYQRYDV [SLC7A14_Y693] 0.718, LHQSTYQCYDV [SLC7A14_Y693_R695C] 0.811, LHQSTYQCFDV [SLC7A14_Y693_R695C_YF] 0.726, VDSTEYEVASQ [SLC7A7_Y7] 0.469, QKINKYLTVPA [SLC9A1_Y683_N682K] 1.13, FIIFIYAMKKK [SLCO1B1_Y645_L643F_YF] 0.819, FIILIYAMKKK [SLCO1B1_Y645_YF] 0.861

target: SHP2 N-SH2 domain T52S; test: as above; conditions: peptide library: pTyr-Var

Enrichment score, inactive:
PLQKTYNYNML [SLC4A1_Y553_V557M] 0.727, PLQKTYNHNVL [SLC4A1_Y553_Y555H] 1.19, ELQDDYEDTME [SLC4A1_Y8_M11T] 0.579, YPPTHYIRRMP [SLC4A11_Y820_V824M] 0.215, FPPTHYIRRVP [SLC4A11_Y820_YF] 0.291, FSCLPYGRLAY [SLC52A2_Y305] 0.591, FSCLPYRRLAF [SLC52A2_Y305_G306R_YF] 0.285, PKEEPYKMQEK [SLC5A3_Y565_Q566K] 0.449, VVIVLYFSLWK [SLC6A2_Y249] 0.794, LHQSTYQRYDV [SLC7A14_Y693] 0.627, LHQSTYQCYDV [SLC7A14_Y693_R695C] 1.1, LHQSTYQCFDV [SLC7A14_Y693_R695C_YF] 0.583, VDSTEYEVASQ [SLC7A7_Y7] 0.424, QKINKYLTVPA [SLC9A1_Y683_N682K] 1.08, FIIFIYAMKKK [SLCO1B1_Y645_L643F_YF] 0.726, FIILIYAMKKK [SLCO1B1_Y645_YF] 0.761

Enrichment score, active:
ISSLPYMKMIF [SLC4A11_Y853_M848I] 9.51, MSSLPYMKVIF [SLC4A11_Y853_M856V] 9.39

target: SHP2 N-SH2 domain wild-type; test: as above; conditions: peptide library: pTyr-Var

Enrichment score, inactive:
PLQKTYNYNML [SLC4A1_Y553_V557M] 0.565, PLQKTYNHNVL [SLC4A1_Y553_Y555H] 1.31, ELQDDYEDTME [SLC4A1_Y8_M11T] 0.733, YPPTHYIRRMP [SLC4A11_Y820_V824M] 0.269, FPPTHYIRRVP [SLC4A11_Y820_YF] 0.417, ISSLPYMKMIF [SLC4A11_Y853_M848I] 2.95, MSSLPYMKVIF [SLC4A11_Y853_M856V] 2.66, FSCLPYGRLAY [SLC52A2_Y305] 0.72, FSCLPYRRLAF [SLC52A2_Y305_G306R_YF] 0.242, PKEEPYKMQEK [SLC5A3_Y565_Q566K] 1.84, VVIVLYFSLWK [SLC6A2_Y249] 0.698, LHQSTYQRYDV [SLC7A14_Y693] 0.574, LHQSTYQCYDV [SLC7A14_Y693_R695C] 1.15, LHQSTYQCFDV [SLC7A14_Y693_R695C_YF] 1.07, VDSTEYEVASQ [SLC7A7_Y7] 0.767, QKINKYLTVPA [SLC9A1_Y683_N682K] 0.977, FIIFIYAMKKK [SLCO1B1_Y645_L643F_YF] 0.599, FIILIYAMKKK [SLCO1B1_Y645_YF] 0.826
